{"source": "paper PMC6919601", "about": "“Identification of Plasmodium dipeptidyl aminopeptidase allosteric inhibitors by high throughput screening” (PLoS ONE, 2019)", "note": "Among all 110,000 compounds or so, about 230 (0.21%) showed an effect of 50% or more. The list shows a part of the results.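 Also: 30 min substrate incubation versus DMSO and 10 µM JCP410 controls.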", "data": [{"biological_target": "DPAP1 (Plasmodium falciparum, UniProt Q8IIJ9)", "sequence (Q8IIJ9 whole entry, looked up)": "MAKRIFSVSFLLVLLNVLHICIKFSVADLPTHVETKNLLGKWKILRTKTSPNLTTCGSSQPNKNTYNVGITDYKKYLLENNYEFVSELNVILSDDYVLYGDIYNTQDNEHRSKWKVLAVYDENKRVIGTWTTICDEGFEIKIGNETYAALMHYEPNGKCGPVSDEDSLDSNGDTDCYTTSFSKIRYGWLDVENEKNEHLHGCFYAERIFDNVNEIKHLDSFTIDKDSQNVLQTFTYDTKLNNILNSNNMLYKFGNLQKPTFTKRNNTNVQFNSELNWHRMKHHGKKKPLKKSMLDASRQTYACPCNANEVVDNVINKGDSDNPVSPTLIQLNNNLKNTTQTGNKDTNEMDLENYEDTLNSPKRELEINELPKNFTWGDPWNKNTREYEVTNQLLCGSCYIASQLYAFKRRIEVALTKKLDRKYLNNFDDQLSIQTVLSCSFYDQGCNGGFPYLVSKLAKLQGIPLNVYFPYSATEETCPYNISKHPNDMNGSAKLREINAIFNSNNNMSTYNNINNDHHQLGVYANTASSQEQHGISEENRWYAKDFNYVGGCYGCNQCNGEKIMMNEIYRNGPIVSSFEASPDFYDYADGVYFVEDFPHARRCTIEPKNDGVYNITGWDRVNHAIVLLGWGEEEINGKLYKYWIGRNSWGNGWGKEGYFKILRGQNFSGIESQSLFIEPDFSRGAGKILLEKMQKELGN", "assay": "primary screen, percent inhibition; read by cleavage of a fluorogenic dipeptide substrate; higher = more effect of the substance", "parameters": "species or system P. falciparum D10 trophozoite lysates; single well", "units": {"% Inhibition @ 10 uM": "%"}, "values": [{"smiles": "CC1=C(C(=O)Nc2cccnc2)C(c2ccccc2)n2nc(CCCO)nc2N1", "note": "(centres unmarked)", "% Inhibition @ 10 uM": 0.889}, {"smiles": "Cc1ccc2[nH]c3c(c2c1)CCCC3NCCCOc1ccc(F)cc1", "note": "(centres unmarked)", "% Inhibition @ 10 uM": -3.82}, {"smiles": "Cc1ccc2nc(NCCCN3CCOCC3)c3nncn3c2c1", "% Inhibition @ 10 uM": -4.21}, {"smiles": "O=C(O)c1ccc(COc2ccc(Br)cc2)cc1", "% Inhibition @ 10 uM": 2.09}, {"smiles": "Cc1cc(C(=O)Nc2cccnc2)on1", "% Inhibition @ 10 uM": -7.13}, {"smiles": "CCOC(=O)NC(=O)c1ccc2ccccc2n1", "% Inhibition @ 10 uM": 1.12}, {"smiles": "Cc1nn(Cc2nc(-c3ccc(-n4cccc4)cc3)no2)c(C)c1Br", "% Inhibition @ 10 uM": 4.61}, {"smiles": "COC(=O)C1=C(C)N=c2s/c(=C/c3ccoc3)c(=O)n2C1c1ccccc1", "note": "(centres unmarked)", "% Inhibition @ 10 uM": -2.63}, {"smiles": "CN(C)S(=O)(=O)c1ccc(C(=O)C2=C(O)C(=O)N(CCN3CCOCC3)C2c2ccco2)cc1", "note": "(centres unmarked)", "% Inhibition @ 10 uM": -1.25}, {"smiles": "Cn1c(=O)[nH]c(=O)c2c1nc1oc(-c3ccc([N+](=O)[O-])cc3)cn12", "% Inhibition @ 10 uM": -5.61}, {"smiles": "Cn1c(=O)[nH]c(=O)c2ncn(Cc3ccccc3)c21", "% Inhibition @ 10 uM": 2.65}, {"smiles": "Cc1ccc(Cn2cc(CCCC(=O)NCC3CCCO3)c3ccccc32)cc1", "note": "(centres unmarked)", "% Inhibition @ 10 uM": 0.526}, {"smiles": "CCc1nn(CC(=O)NCCN2CCOCC2)c(=O)c2cc3c(OC)cccc3n12", "% Inhibition @ 10 uM": 0.0198}, {"smiles": "O=C(CCC(=O)Nc1ccc(F)cc1)Nc1ccc(F)cc1", "% Inhibition @ 10 uM": -0.366}, {"smiles": "Oc1ccccc1CN1CCCN(Cc2ccccc2O)C1", "% Inhibition @ 10 uM": -3.06}, {"smiles": "CC1C2=C(CC(C)(C)CC2=O)OC2=C1C(=O)CC(C)(C)C2", "% Inhibition @ 10 uM": -0.693}, {"smiles": "COc1cccc(OC)c1C(=O)NCCC1=CCCCC1", "% Inhibition @ 10 uM": -0.132}, {"smiles": "COc1ccc(Br)cc1CN1CCN(c2cccc(C(F)(F)F)c2)CC1", "% Inhibition @ 10 uM": 3}, {"smiles": "CC(=O)c1ccc(NC(=O)c2ccccc2C)cc1", "% Inhibition @ 10 uM": 0.907}, {"smiles": "COc1ccc(CCNC(=O)CNS(=O)(=O)c2ccc(Br)s2)cc1OC", "% Inhibition @ 10 uM": 3.27}, {"smiles": "COc1ccc(C2=NN(C(=O)CCC(=O)O)C(c3ccccc3)C2)cc1", "note": "(centres unmarked)", "% Inhibition @ 10 uM": -4.5}, {"smiles": "Cc1c(Cl)cccc1NS(=O)(=O)c1ccc(Cl)cc1", "% Inhibition @ 10 uM": 1.63}, {"smiles": "N#CCNC(=O)[C@H](Cc1c(F)cccc1F)NC(=O)OCc1ccccc1", "% Inhibition @ 10 uM": -0.207}, {"smiles": "Cc1cccc(C)c1NC(=O)c1cccnc1", "% Inhibition @ 10 uM": -1.22}, {"smiles": "Clc1ccc2nc(-c3cccs3)c(NC3CCCC3)n2c1", "% Inhibition @ 10 uM": -2.56}, {"smiles": "CCCCNC(=O)c1cc(-c2ccccn2)nc2ccc(S(=O)(=O)N3CCOCC3)cc12", "% Inhibition @ 10 uM": 0.387}, {"smiles": "CCc1ccccc1NC(=O)c1ccccc1N1C(=O)C2C3C=CC(C3)C2C1=O", "note": "(centres unmarked)", "% Inhibition @ 10 uM": -2.74}, {"smiles": "Cc1ccc(OCCSc2nc(C)c(C)c(O)n2)cc1", "% Inhibition @ 10 uM": -4.35}, {"smiles": "Cc1ccccc1-c1nc2s/c(=C\\C=C\\c3ccccc3)c(=O)n2n1", "% Inhibition @ 10 uM": 0.561}, {"smiles": "O=C(c1cccc([N+](=O)[O-])c1)c1ccc(C(=O)O)c(C(=O)O)c1", "% Inhibition @ 10 uM": -6.71}, {"smiles": "Cc1ccc2sc(-c3ccc(NC(=O)c4ccccc4)cc3)nc2c1", "% Inhibition @ 10 uM": 0.467}, {"smiles": "CCOC(=O)c1c(NC(=O)CCNCCO)sc2c1CCCC2", "% Inhibition @ 10 uM": 0.343}, {"smiles": "Cn1c(=O)c2c(-c3ccccc3F)c(C#N)c(N)nc2n(C)c1=O", "% Inhibition @ 10 uM": 1.45}, {"smiles": "COCCn1c(COc2ccc(OC)cc2)nc2ccccc21", "% Inhibition @ 10 uM": -2.46}, {"smiles": "CCO/C(O)=C1\\C(C)=NC2=C(C(=O)CC(C)(C)C2)C1CCC1CCCCC1", "note": "(centres unmarked)", "% Inhibition @ 10 uM": 1.88}, {"smiles": "Cc1ncc(CO)c2c1Oc1nc(-c3ccc(Cl)cc3)nc(SCC(N)=O)c1C2", "% Inhibition @ 10 uM": 3.02}, {"smiles": "CCOC(=O)CC(C)(O)P(=O)(OC)OC", "note": "(centres unmarked)", "% Inhibition @ 10 uM": -5.62}, {"smiles": "COc1cccc(OC)c1OCc1cc(C2C(C#N)=C(N)OC3=C2C(=O)CCC3)c(C)cc1C", "note": "(centres unmarked)", "% Inhibition @ 10 uM": -5.63}, {"smiles": "O=C(O)C1CCCN1C(=O)OCc1ccccc1", "note": "(centres unmarked)", "% Inhibition @ 10 uM": 4.55}, {"smiles": "CCCCCC1=C(O)C(=O)c2ccccc2C1=O", "% Inhibition @ 10 uM": 3}, {"smiles": "CCN1CCN(CC(O)COc2ccc(OC)cc2)CC1", "note": "(centres unmarked)", "% Inhibition @ 10 uM": -5.69}, {"smiles": "O=C(CSc1c2c(nc3ccccc13)CCC2)Nc1nc2ccccc2s1", "% Inhibition @ 10 uM": -3.09}, {"smiles": "CCC(=O)N1CCN(c2ccc(NC(=O)Cc3ccccc3)cc2)CC1", "% Inhibition @ 10 uM": 0.843}, {"smiles": "CCN1CCN(c2nc3c(S(=O)(=O)c4ccccc4)nnn3c3ccc(Cl)cc23)CC1", "% Inhibition @ 10 uM": -3.08}, {"smiles": "O=C(NCCc1ccccc1)Nc1cnc2ccccn2c1=O", "% Inhibition @ 10 uM": 2.05}, {"smiles": "Cc1ccc(NC(=O)c2cnn(-c3ccccc3)c2-n2cccc2)nc1", "% Inhibition @ 10 uM": 8.65}, {"smiles": "N#C/C(=C\\c1ccccc1[N+](=O)[O-])C(N)=O", "% Inhibition @ 10 uM": 11.1}, {"smiles": "CCCOc1ccc(C2c3c(oc4ccc(C)cc4c3=O)C(=O)N2CCCN2CCOCC2)cc1", "note": "(centres unmarked)", "% Inhibition @ 10 uM": 2.31}, {"smiles": "Cc1ccccc1/C=C1\\C(=O)NC(=S)N(c2ccc(Cl)cc2Cl)C1=O", "% Inhibition @ 10 uM": 10.2}, {"smiles": "Cn1c(=O)c2c(nc(CN3CCc4ccccc4C3)n2CCc2ccccc2)n(C)c1=O", "% Inhibition @ 10 uM": 2}, {"smiles": "COc1ccc(CN2CCN(c3cccc(Cl)c3)CC2)cc1", "% Inhibition @ 10 uM": -3.65}, {"smiles": "O=C(c1ccco1)c1cn(Cc2ccc(F)cc2)c2ccccc12", "% Inhibition @ 10 uM": -11}, {"smiles": "CC1(c2ccccc2)CN(CC(N)=O)CCN1", "note": "(centres unmarked)", "% Inhibition @ 10 uM": 6.03}, {"smiles": "Cc1ccc2c(c1)-c1c(cnn1CC(=O)NCCN(C)C1CCCCC1)CO2", "% Inhibition @ 10 uM": -4.51}, {"smiles": "Cc1cccc(OCc2nc(C#N)c(NC(C)c3ccccc3)o2)c1", "note": "(centres unmarked)", "% Inhibition @ 10 uM": 2.46}, {"smiles": "Cc1nnc(SCc2ccc(C(C)(C)C)cc2)nc1O", "% Inhibition @ 10 uM": 3.25}, {"smiles": "Nc1c(C(=O)NCc2ccc3c(c2)OCO3)nnn1-c1ccc(OC(F)(F)F)cc1", "% Inhibition @ 10 uM": -3.28}, {"smiles": "CN1CCC(NCCc2cccc(Cl)c2)CC1", "% Inhibition @ 10 uM": 0.217}, {"smiles": "Cc1ccc(C2CC(C(F)(F)F)n3ncc(C(=O)N4CCC(C)CC4)c3N2)cc1", "note": "(centres unmarked)", "% Inhibition @ 10 uM": 11.4}, {"smiles": "CCOc1ccccc1-n1cc2c(c1-c1ccc(Cl)cc1)c(=O)n(C)c(=O)n2C", "% Inhibition @ 10 uM": -10.9}, {"smiles": "COc1cc2c(cc1OC)C(C(=O)NCc1ccc(F)cc1Cl)C1c3ccccc3CCN1C2=O", "note": "(centres unmarked)", "% Inhibition @ 10 uM": 1.08}, {"smiles": "Cc1noc2ncnc(N3CCN(C(=O)c4ccco4)CC3)c12", "% Inhibition @ 10 uM": -7.93}, {"smiles": "Cc1cc(O)nc(NCc2ccccc2)n1", "% Inhibition @ 10 uM": 3.53}, {"smiles": "COc1cc(C2C(C#N)=C(N)SC(N)=C2C#N)ccc1O", "% Inhibition @ 10 uM": 28.3}, {"smiles": "C=CCOc1ccc(Cl)cc1/C=C(\\C#N)c1nc2ccccc2[nH]1", "% Inhibition @ 10 uM": 0.779}]}]}
